Source: PubChem BioAssay AID651820 (National Center for Advancing Translational Sciences (NCATS), 2012)
Hit rate of the full screen: of about 340,000 compounds, about 12,000 (3.5%) were called active. The inconclusive results got no clear call from the source; some entries with a clear call stand among them for comparison. Calls come from the whole dose curve; as a rule, active = well fitted inhibition curve with a large enough effect; inconclusive = small, poorly fitted or top-dose-only effect, or another doubt; inactive = no such curve, though single readings can be large or run the other way. Potencies of inconclusive entries are left out as doubtful fits.

Test: qHTS Assay for Inhibitors of Hepatitis C Virus (HCV)
Details: Huh7.5.1 HCVcc-Cre (HCVcc is cell-culture hepatitis C virus) infection, luciferase reporter, 44 h; activity change, negative = inhibition: at 41.8 µM (top of the series) unless noted
In short: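 Whole-lifecycle infectious HCVcc-Cre system; cells 1,000/well, compound then virus (~0.5 moi) added 4 h after plating, 44 h culture. Luciferase read 15 sec following 15 min substrate incubation, room temp.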
% is set by controls: 0 for no effect and ±100 for the full control effect; potency is the fitted concentration of half-maximal effect; tags give direction and shape of the fitted curve.

| SMILES | Potency | activity change, negative = inhibition |
| --- | --- | --- |
| CN(C)c1ccc(C(=O)c2ccc(N(C)C)c3ccccc23)cc1 | active: 11.2 µM | – |
| O=C(Cc1ccccc1Cl)Nc1cc(S(=O)(=O)N2CCOCC2)ccc1N1CCOCC1 | – | inactive: 0.81% |
| CC1=NNC(=O)/C1=C\c1cn(-c2ccccc2)nc1-c1ccc(F)cc1 | active: 4.47 µM | – |
| CC(C)n1c(N2CCN(CC(=O)NCc3cccs3)CC2)nc2ccccc21 | – | inactive: -26.4% |
| COc1ccc(-c2ccc(SCC(=O)Nc3cccc(C(C)=O)c3)nn2)cc1OC | active: 8.91 µM | – |
| OCCC1CN(Cc2cccc3c2OCO3)CCN1C1CCCC1 (centres undefined) | – | inactive: -7.31% |
| CCN(CC)S(=O)(=O)N1CCC(C(=O)NC2CCCc3ccccc32)CC1 (centres undefined) | inconclusive [inhibitor, partial curve] | – |
| COc1ccc(/C=C2/CCCC(C(=O)C(F)(F)F)=C2O)cc1OC | inconclusive [inhibitor, single point] | – |
| O=C(COC(=O)C1CCCCC1)Nc1cc([N+](=O)[O-])ccc1F | – | inactive: 7.35% |
| CCOc1ccc(-c2nnc(NC(=O)CCCOc3cccc(C)c3)o2)cc1 | inconclusive [inhibitor, single point] | – |
| COc1cc(/C=N/NC(N)=O)ccc1OCC(=O)Nc1cc(C)c(C)cc1Br | – | inactive: 6.26% |
| CCCCc1ccc(NC(=S)Nc2ccc(Nc3ccc(OC)cc3)cc2)cc1 | inconclusive [inhibitor, partial curve] | – |
| CCN(C(=O)c1cc2c(=O)n3cccc(C)c3nc2n1CCCOC)C1CCCCC1 | inconclusive [inhibitor, single point] | – |
| CCn1cc(C(=O)NC(=S)Nc2ccccc2Br)cn1 | inconclusive [inhibitor, partial curve] | – |
| COc1ccc(-c2csc(N3CCN(S(=O)(=O)c4ccc5c(c4)NC(=O)CO5)CC3)n2)cc1 | inconclusive [inhibitor, single point] | – |
| CCOC(=O)c1ccccc1-n1c(C)cc(C2N=C(N)Nc3nc4ccccc4n32)c1C (centres undefined) | – | inactive: -8.21% |
| Cc1cc(C(=O)COC(=O)c2cc(O)c3ccccc3c2O)c(C)n1CC1CCCO1 (centres undefined) | inconclusive [inhibitor, partial curve] | – |
| COc1ccc(CNC(=O)CCNC(=O)c2ccc(C(C)(C)C)cc2)cc1OC | – | inactive: 2.01% |
| O=C(NCCc1ccccc1)C(=O)NCC1OCCN1S(=O)(=O)c1ccc2c(c1)OCCO2 (centres undefined) | inconclusive [inhibitor, single point] | – |
| COc1ccccc1-n1c(-c2ccc(C)cc2)nc2ccccc2c1=O | inconclusive [inhibitor, partial curve, poor fit] | – |
| CCOC(=O)c1cc2c(ccn2-c2ccc(F)cc2)n1CC(=O)N1CCN(C(=O)c2ccco2)CC1 | inconclusive [inhibitor, full curve, poor fit] | – |
| CNC[C@H]1Oc2c(NS(=O)(=O)c3ccccc3)cccc2C(=O)N([C@H](C)CO)C[C@@H]1C | inconclusive [inhibitor, single point] | – |

| SMILES | Potency | activity change, negative = inhibition |
| --- | --- | --- |
| S=C(NCc1ccccc1)Nc1cccc2ccccc12 | active: 10 µM | – |
| O=C(C1CCC(=O)N(C2CC2)C1)N1CCC(Oc2cccc(C(F)(F)F)c2)CC1 (centres undefined) | inconclusive [inhibitor, single point] | – |
| COC(=O)C1=C(c2cc3ccccc3s2)C[C@@H]2CC[C@H]1N2C(=O)NC1CCCCC1 | inconclusive [inhibitor, single point] | – |
| Cc1ccc(-c2cc(C(=O)NCc3ccco3)c3ccccc3n2)o1 | inconclusive [inhibitor, single point] | – |
| Cc1ccc(C)c(SCC(=O)NC2CCS(=O)(=O)C2)c1 (centres undefined) | – | inactive: -8.89% |
| CCN(CC)c1ccc(N/C(N)=N/c2nc(C(F)(F)F)cc(=O)[nH]2)cc1 | – | inactive: -5.48% |
| C=CCN1C(=O)S/C(=C/c2ccc(Sc3nc4ccccc4[nH]3)o2)C1=O | inconclusive [inhibitor, single point] | – |
| C/C(=N\Nc1ccc(S(=O)(=O)Nc2ccc(Cl)cc2)cc1[N+](=O)[O-])c1ccc(N2CCOCC2)cc1 | inconclusive [inhibitor, single point] | – |
| Cc1nnsc1C(=O)NC1CCCc2c1cnn2-c1ccccc1F (centres undefined) | inconclusive [inhibitor, full curve] | – |
| Cc1cc(N2CCCCC2)ccc1C=C1C(=O)N(C)C(=S)N(C)C1=O | inconclusive [inhibitor, single point] | – |
| N#CCC(=O)Nc1ccc(C(=O)OCC(=O)c2ccc3c(c2)OCCO3)cc1 | inconclusive [inhibitor, single point] | – |
| CCOc1ccccc1-n1c(=S)sc2c(=O)n(-c3ccc(C)cc3)c(=S)[nH]c21 | inconclusive [inhibitor, partial curve] | – |
| CCc1noc(C)c1C(=O)Nc1nc2c(C)cc(C)cc2s1 | active: 11.2 µM | – |
| Fc1cc2nc(-c3ccncc3)[nH]c2cc1F | – | inactive: -1.05% |
| CC(=O)n1cc([C@H]2C=C(C(=O)NCc3ccccc3)O[C@@H](OCCCCO)C2)c2ccccc21 | – | inactive: -19.9% |
| O=C(Nc1cc(C(F)(F)F)ccc1N1CCCC1)c1cccnc1 | inconclusive [inhibitor, single point] | – |
| Cc1ccc(NC(=O)CCn2c(=O)c3cccn3c3ccccc32)cc1C | inconclusive [inhibitor, partial curve] | – |
| CCOC(=O)c1c(C)[nH]c(C2=NNC(=NC3CC3)SC2)c1C | inconclusive [inhibitor, partial curve] | – |
| c1ccc(CCNc2cnccn2)cc1 | – | inactive: 18.7% |
| N#CC1=C(N)C2=CCCC[C@H]2[C@H](c2cccc(F)c2)C1(C#N)C#N | inconclusive [inhibitor, partial curve, poor fit] | – |
| COc1ccc(NC(=O)/C(Cl)=C(/Cl)S(=O)(=O)Cc2ccccc2)cn1 | active: 3.55 µM | – |
| CCOC(=O)CC(c1ccc([N+](=O)[O-])cc1)n1c(C)ccc1C (centres undefined) | inconclusive [inhibitor, single point] | – |
